Assay results reported in the supplement of paper PMC10126150.
Values marked as one replicate rest on one cluster of the flow cell; about a third of the high ones do not repeat.

tested on: ATP; assay: switch fluorescence ratio, 500 uM ATP over buffer (Cy3 cluster intensity, sum of 5 cycles each) (fold (ratio)); higher = stronger signal-on switching upon ATP binding; sequences stand for … in TCGTCGGCAGCGTCAGATGTGTATAAGAGACAGTTTTTTTTTTTTTTTTTTTTTTTTT…TC; settings: aptamer strand: ATP DNA aptamer (quencher-CACCTGGGGGAGTATTGCGGAGGAAGG + anchor), 100 nM annealed; ATP concentration: 500 uM; one replicate
How it was run: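 Between each of five buffer/ATP cycles, the flow-cell was stripped with NaOH and re-annealed. Each cycle imaged Cy3-labelled switching-strand clusters, annealed to 100 nM quencher-labelled ATP aptamer on a modified Illumina MiSeq flow-cell, first in selection buffer and then after 15 min with 500 uM ATP at 22 °C. The fluorescence ratio is summed target-cycle over summed buffer-cycle Cy3 intensity per cluster, averaged per switch-domain sequence, with clusters outside 100-1000 RFU excluded.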
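Note: ATP exposure 15 min at 22 °C before imaging.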

Sequence	switch fluorescence ratio
TAAGTCGTCA	1.01
TAAGTGCGCG	1.05
TAAGTGTAGG	1.08
TAAGTTAAT	0.999
TAAGTTCCGT	1.01
TAAGTTTCAT	1
TAATAAGCAG	1.03
TAATAATAAG	0.983
TAATACTAAA	1.01
TAATACTACT	1.41
TAATAGACTC	1.08
TAATAGCT	1.05
TAATAGGATT	1
TAATATCCTT	1.05
TAATATCGAG	0.957
TAATATCTAG	1.04
TAATATGTCA	0.996
TAATATTCGT	0.973
TAATCATCTT	1.04
TAATCGGATT	0.961
TAATCGGTGG	0.993
TAATCGTTGC	0.983
TAATCTTGGA	0.973
TAATGAAATT	1.01
TAATGAATGC	1.05
TAATGACAAT	0.984

Sequence	switch fluorescence ratio
TAATGATC	1.04
TAATGCAACA	0.978
TAATGCATC	1.07
TAATGCCTCG	0.994
TAATGCGGG	0.974
TAATGGCAGT	0.983
TAATGGCTAA	1.32
TAATGGCTCC	1.06
TAATGGTAAC	1.01
TAATGGTCAG	0.962
TAATGTCCTA	1.01
TAATTAAACT	0.975
TAATTATTCG	1
TAATTCCGGA	1.03
TAATTCG	0.995
TAATTGACTG	0.936
TAATTGATGG	1.01
TAATTGATTC	1.03
TAATTGCCGT	1.02
TAATTGCGTT	1.02
TAATTGGAAC	0.999
TAATTGGTCG	1.01
TAATTTATCT	0.982
TAATTTTACC	1.08
TAATTTTACT	0.993
TACAAACTGG	1.2

Sequence	switch fluorescence ratio
TACAAATAGT	1.2
TACAACAAGC	1.07
TACAACAATA	0.953
TACAAGGCGT	0.979
TACAATAGAG	1.02
TACAATTAAA	0.997
TACAATTCTC	1.05
TACACAAGGG	1.06
TACACATACC	1.53
TACACGACAC	1.81
TACACTATTT	1.05
TACAGCCTTC	1.11
TACAGCTGAG	1.01
TACAGCTTAT	1.05
TACAGGCTGC	1.02
TACATAAATT	0.98
TACATATAAT	1.03
TACATCCGTT	1.04
TACATCCT	1.08
TACATGAACG	1.1
TACATGATAT	0.993
TACATGGTGC	1.23
TACCACTTTT	0.985
TACCAGAAGT	0.991
TACCAGAAT	0.99
TACCAGCTGC	1.07

Sequence	switch fluorescence ratio
TACCCATGAG	1.01
TACCCCATTA	1.06
TACCCCCTT	1.22
TACCCTCTCT	0.994
TACCCTTGTG	1.03
TACCCTTTGG	1.02
TACCGAACAA	1.25
TACCGCATCG	1.26
TACCGGTAGA	1.07
TACCGTCCCT	1.14
TACCTCGGAT	1.02
TACCTGACAA	1.31
TACCTTATTC	1.1
TACCTTTCTG	1.18
TACGACGCCT	1.96
TACGACTGGT	1.02
TACGAGGATC	1.02
TACGAGGCGA	2.08
TACGATAGCA	1.12
TACGATGCTG	1.07
TACGATGTAG	1.06
TACGCCTCAT	1.09
TACGCGAATC	1.29
TACGGAAGGC	1.03
TACGGAGACC	1.13
TACGGCGATT	1.02

Sequence	switch fluorescence ratio
TACGGCTCGA	1.03
TACGGGCGCA	1.01
TACGTATCCA	1.13
TACGTCCACC	1.47
TACGTGCCCG	1.09
TACGTTAGCA	1.06
TACTAACGGC	1.51
TACTAGTGCG	0.981
TACTATTGGT	1.01
TACTCAAGA	1.2
TACTCAGAGA	1.09
TACTCATAGT	0.948
TACTCCAAG	1.13
TACTCCCTTT	1.05
TACTCCTTCA	1.38
TACTCCTTTT	0.998
TACTCGACGT	1.05
TACTCTAGA	1.13
TACTCTCTG	1.07
TACTCTGAGG	1.02
TACTCTGGCG	1.03
TACTGAAAGG	1.01
TACTGACGTA	1.12
TACTGCGAC	1.3
TACTGGAAC	1.07
TACTGGGGCC	1.05

Sequence	switch fluorescence ratio
TACTGGGTTT	1.01
TACTGTAATA	1.2
TACTTCCCGA	1.05
TACTTCGTTT	0.955
TACTTGCCGG	1.51
TACTTGTGAT	0.985
TACTTGTTG	0.962
TACTTTATGA	1.05
TACTTTGAAT	0.972
TACTTTGGAA	1.02
TACTTTTGGC	1.06
TAGAAAAGGA	1.01
TAGAAAGGA	0.982
TAGAAAGGTA	1.04
TAGAAAGTGG	0.929
TAGAACGTTT	0.981
TAGAAGACTT	1.01
TAGAATCACT	0.982
TAGAATGCAG	0.967
TAGAATTCGA	1.05
TAGAATTTCA	0.995
TAGACCAACT	1.11
TAGACTGGG	0.96
TAGAGAAAGT	0.978
TAGAGAAGC	1.05
TAGAGCAGAT	1.06

Sequence	switch fluorescence ratio
TAGAGCCCAA	1.03
TAGAGCTTGA	0.931
TAGAGTGCAT	0.993
TAGAGTTCGA	1.01
TAGATATACG	1.02
TAGATATAGT	0.991
TAGATATTTG	1.02
TAGATCACGC	1
TAGATCGATG	0.973
TAGATCGCT	0.978
TAGATCTACA	0.976
TAGATCTACG	1.02
TAGATGCTGC	1.03
TAGATTATTT	0.98
TAGATTCGCA	1.01
TAGATTCGGA	0.896
TAGATTGG	0.985
TAGATTGTAG	0.977
TAGCAAACTA	1.29
TAGCAACAAA	1.03
TAGCAACATG	1.03
TAGCACAGGC	1.09
TAGCACCTGG	1.01
TAGCACTAA	2.29
TAGCAGAA	1.6
TAGCAGACCG	1.02

Sequence	switch fluorescence ratio
TAGCAGGCT	0.967
TAGCATACGA	2.98
TAGCATGGGT	1.04
TAGCCAGGGA	1.03
TAGCCATAGA	1.36
TAGCCCTAGG	1.01
TAGCCCTGTA	0.962
TAGCCGACTG	1.05
TAGCCGAGTT	1.03
TAGCCGATAA	1.03
TAGCCGGAAT	1.1
TAGCCTAATT	1.03
TAGCCTTCAT	1.03
TAGCGATTG	1.45
TAGCGCACCG	1.04
TAGCGCCCTG	0.988
TAGCGGTA	1.09
TAGCGGTGTT	0.936
TAGCGGTTGA	1
